Drawing on PubChem BioAssay AID485344 (National Center for Advancing Translational Sciences (NCATS), 2010), this text covers inhibition for 101 compounds.

SMILES strings stand for the structures. Several values for one entry are separate records, joined by “and”; a condition that tells them apart may be missing. Identical values can stand only once. Hit rate of the full screen: of about 340,000 compounds, about 6,900 (2%) were called active. Cut-off read from the data, not from the text of the source: active = inhibition above about 30%; inactive = below that, where a call was filed. The entries are a selection whose mix differs from that of the whole data set. The source gives no active or inactive call for entries shown without one.

Chain of UniProt P14416 (P14416 whole entry, looked up): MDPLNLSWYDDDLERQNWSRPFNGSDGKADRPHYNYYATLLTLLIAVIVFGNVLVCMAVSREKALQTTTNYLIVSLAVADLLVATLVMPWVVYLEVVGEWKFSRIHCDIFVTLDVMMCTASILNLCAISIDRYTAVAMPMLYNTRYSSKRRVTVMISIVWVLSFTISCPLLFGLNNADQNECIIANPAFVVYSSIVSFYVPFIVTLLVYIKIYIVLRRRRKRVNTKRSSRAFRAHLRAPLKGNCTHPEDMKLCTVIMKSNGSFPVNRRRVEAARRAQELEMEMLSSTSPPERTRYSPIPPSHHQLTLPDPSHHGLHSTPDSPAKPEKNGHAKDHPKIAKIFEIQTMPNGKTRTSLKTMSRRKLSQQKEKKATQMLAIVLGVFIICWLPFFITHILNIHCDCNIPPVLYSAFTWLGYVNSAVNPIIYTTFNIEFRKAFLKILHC

This experiment deals with D(2) dopamine receptor (Homo sapiens) (UniProt P14416). The experiment can be described thus: HTS Assay for Allosteric Antagonists of the Human D2 Dopamine Receptor: Primary Screen for Antagonists. Note: 0% is about no effect. To be noted: HEK293 TREx D2 cells, calcium flux, dopamine EC80; at 10 µM; stronger effect = higher value. An outline of the steps:
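Read-out: kinetic calcium fluorescence (1 cycle/s) in inducible HEK293 T-REx D2 cells after an EC80 dopamine addition that followed 180 s compound preincubation. Loss of the dopamine response indicates antagonism.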
As for `COc1cc(C)c(CN2CC=C(c3ccc(F)cc3)CC2)cc1C`, the inhibition is active: 83.9%.
Turning to `Cc1ccc2c(c1)C1CN(C)CCC1N2C(=O)/C(C#N)=C/c1ccc2c(c1)OCO2` (stereo unspecified), the inhibition is active: 47.7%.
For `COc1ccccc1N1CCN(Cc2ccc(Br)s2)CC1` the value was active: 84.9%.
As for `Cc1nnc(NC(=O)c2cccn(Cc3cccc(F)c3)c2=O)s1`, the inhibition is -25.8%.
Take `CNc1ccc2oc(C[C@H]3O[C@@]4(CC[C@H]3C)O[C@H]([C@H](C)C(=O)c3ccc[nH]3)[C@H](C)C[C@H]4C)nc2c1C(=O)O`: the inhibition is active: 62.5%.
On to `COc1ccc(CN2CCN(c3ccccc3F)CC2)c(OC)c1`, for which the inhibition was active: 76.4%.
For `COc1ccc(OCC(=O)N2CCN(Cc3ccc(SC)cc3)CC2)cc1`, the inhibition was -0.996% and active: 45.6%.
On to `O=C(c1ccc2c(c1)N(Cc1ccc(F)cc1)C(=O)c1ccccc1S2)N1CCC2(CC1)OCCO2`, for which the inhibition was -0.267%.
Take `Cc1ccccc1-n1c(/C=C/c2ccc(N(C)C)cc2)nc2ccccc2c1=O`: the inhibition is -24.9%.
For `Cc1cccc(CN2CCN(c3ccc(Cl)cc3)CC2)c1`, the inhibition was active: 34.3%.
For `Cc1cccc(Cn2cccc(C(=O)Nc3ccc(F)cc3F)c2=O)c1`, the inhibition was -16.1%.
`Cc1ccnc(-n2c(-c3ccccc3)nc3ccccc3c2=O)c1`: the inhibition was active: 33%.
As for `Cc1ccc(OCC(=O)N2CCN(CCc3ccncc3)CC2)cc1`, the inhibition was 5.07%.
Regarding `COc1ccccc1CN1CCN(C(=O)COc2ccccc2)CC1`, the inhibition was active: 33%.
The figure for `Cc1ccc(Cn2cccc(C(=O)Nc3nc4ccc(C)cc4s3)c2=O)cc1` is 16.1%.
On to `COc1ccccc1N1CCN(Cc2cnc(-c3ccccc3)[nH]2)CC1`, for which the inhibition was active: 57.1%.
In the case of `COc1ccc(NC(=O)CN2C(=O)C(C)N=C(c3ccccc3)c3ccccc32)cc1OC` (stereo unspecified), the inhibition is -1.42%.
For `O=P(CN1CCN(c2ccccc2)CC1)(N1CCCCC1)N1CCCCC1` the value was active: 36.5%.
For `CCc1ccc(-n2nc(C)c3c2NC(=O)CSC3c2ccccc2C)cc1` (stereo unspecified) the value was -1.57%; for `Cc1ccc(OCC(=O)Nc2ccc(Cl)cc2C(=O)c2ccccc2)c(Br)c1`, -14.4%; for `COC(=O)C1=C(c2ccc(OCc3ccccc3)cc2)C[C@@H]2CC[C@H]1N2C(=O)NC1CCN(Cc2ccccc2)CC1`, active: 69.8%.
Consider `CSc1ccc(C(=O)C2CCCN(CCCn3cccn3)C2)cc1` (stereo unspecified), for which the inhibition is active: 35.9%.
Consider `COc1ccccc1N1CCN(Cc2ccc(Br)cc2)CC1`, for which the inhibition is active: 93.7%.
`N#Cc1cc2c(nc1SCC(=O)Nc1cccc(C(F)(F)F)c1)C1CCN2CC1`: the inhibition was -10.1%.
For `COc1ccc(C(c2c(O)c3ccccc3oc2=O)c2c(C)n(C)n(-c3ccccc3)c2=O)cc1` (stereo unspecified), the inhibition was active: 93.3% and 3.36%.
Regarding `CCSc1nnc(NC(=O)c2cccn(Cc3ccccc3Cl)c2=O)s1`, the inhibition was determined as 1.93%.
`CCOc1ccccc1NC(=O)c1cccn(Cc2ccccc2C)c1=O`: the inhibition is 22.5%.
For the compound `CC(=O)c1cccc(NC(=O)c2cccn(Cc3cccc(C)c3)c2=O)c1`, the inhibition is 22.2%.
With `COc1ccc(F)cc1C(=O)C1CCCN(Cc2ccc(O)cc2)C1` (stereo unspecified), the inhibition was active: 71.7%.
On to `Cc1nc2ccccc2c(=O)n1-c1ccccn1`, for which the inhibition is active: 35.1%.
For `O=C1c2ccccc2C(=O)N1Cc1nc2ccccc2c(=O)n1-c1ccccn1` the value was active: 31.2%; for `Cc1ccccc1N1CCN(Cc2ccc3c(c2)OCO3)CC1`, active: 83%; for `CCOC(=O)C(NC(=O)CC)(Nc1ccc(C(O)(C(=O)OCC)C(F)(F)F)cc1C)C(F)(F)F` (stereo unspecified), active: 34.2%.
The figure for `Cc1ccc(NC(=O)CN2C(=O)CN=C(c3ccccc3)c3ccccc32)cc1Cl` is 5.01%; for `COc1cccc(CNCCc2c[nH]c3ccccc23)c1` it is active: 46.3%; for `COc1ccc(C(=O)C2CCCN(C3CSCCSC3)C2)c(OC)c1` (stereo unspecified) it is active: 57%.
In the case of `Cc1ccc(-c2nc(CN3C(=O)CN=C(c4ccccc4Cl)c4cc(Cl)ccc43)c(C)o2)cc1`, the inhibition is 13.2%.
The figure for `Cc1nn(CC(C)C)c(Cl)c1C(=O)NC1CCCCC1` is active: 30.2%.
As to `O=C1CC(c2ccc(C(F)(F)F)cc2)c2c(c3ccccc3oc2=O)O1` (stereo unspecified), the inhibition was 0.904%.
Turning to `Cc1cccc(Cn2cccc(C(=O)Nc3nnc(C)s3)c2=O)c1`, the inhibition came to 20%.
As to `C[C@@H]1C[C@H]2OC(=O)C3(CO3)[C@H]2[C@H](O)[C@]2(C)C(=O)C3OC3[C@@H]12` (stereo partly specified), the inhibition is active: 41.1%.
Turning to `COC(=O)c1ccccc1NC(=O)c1cccn(Cc2cccc(Cl)c2)c1=O`, the inhibition is -0.834%.
For `OC1(c2ccc(F)cc2)CCNC1` (stereo unspecified) the value was active: 86.3%.
In the case of `Clc1ccc(C(OCCN2CCCCC2)c2ccccc2)cc1` (stereo unspecified), the inhibition is active: 42.7%.
For `COc1ccccc1OCC#CCN1CCCC(C)C1` (stereo unspecified) the value was active: 57.5%; for `CC1CN(c2cc([N+](=O)[O-])ccc2Cl)CC(C)N1` (stereo unspecified), active: 68.7%.
With `O=C(Nc1ccc2c(c1)OCO2)c1cccn(Cc2ccccc2)c1=O`, the inhibition was 9.62%.
Turning to `CN1CCc2c([nH]c3ccccc23)C1`, the inhibition is active: 51.4%.
On to `O=C(Nc1ccc(F)c(Cl)c1)N(Cc1ccc2c(c1)OCO2)C1CCN(Cc2ccccc2)CC1`, for which the inhibition was -1.02%.
Turning to `Nc1c(C(=O)Nc2ccc(F)c(Cl)c2)sc2nc3c(cc12)N1CCC3CC1`, the inhibition is -0.958%.
As for `CN1CC(C(=O)c2ccc(F)cc2)C(c2ccc(F)cc2)C1` (stereo unspecified), the inhibition is active: 99.9%.
On to `C1=C(c2ccccc2)CCNC1`, for which the inhibition is active: 42.9%.
In the case of `CCC1(c2cccc(O)c2)CCCCN(C)C1` (stereo unspecified), the inhibition was active: 39.3%.
In the case of `O=c1c2ccccc2nc(/C=C/c2cccc3ccccc23)n1-c1ccc(Cl)cc1`, the inhibition was -1.44%.
`COc1cc(OC)cc(C(=O)Nc2ccc(Cl)cc2C(=O)c2ccccc2Cl)c1`: the inhibition was determined as 7.49%.
Take `CCC12CN3CC(CC)(CN(C1)C3c1c(C)[nH]c(=O)[nH]c1=O)C2=O` (stereo unspecified): the inhibition was -11.3%.
`COc1cc2[nH]c(=O)n(-c3ccc(C)cc3)c(=O)c2cc1OC`: the inhibition is -6.13%.
The figure for `CCN(CC)C(=O)c1ccc(NC(=O)COc2ccc(-c3nn(C)c(=O)c4ccccc34)cc2)cc1` is -9.71%; for `CCc1ccc(-n2nc(C)c3c2NC(=O)CSC3c2ccc(C(=O)OC)cc2)cc1` (stereo unspecified) it is -5.74%; for `COc1ccccc1-c1nn2c(=O)cc(CN3CCN(C(=O)COc4ccccc4Cl)CC3)nc2s1` it is 5.05%.
On to `Cc1ccccc1-c1nc(CN2C(=O)CN=C(c3ccccc3)c3ccccc32)c(C)o1`, for which the inhibition amounted to 14.2%.
Turning to `O=C(Nc1ccc(Br)cc1C(=O)c1ccccc1Cl)c1ccc(Br)cc1`, the inhibition was -14.3%.
With `Cc1ccc(C2SCC(=O)Nc3c2c(=O)[nH]n3C2CCOC(C)(C)C2)cc1` (stereo unspecified), the inhibition is active: 37%.
Take `Cc1ccc2c(=O)n(-c3cccc(Cl)c3)c(=O)[nH]c2c1`: the inhibition was -3.07%.
The figure for `Cc1ccc2nc(NC(=O)c3cccn(Cc4ccccc4F)c3=O)sc2c1` is -2.62%.
As to `COc1ccc(CN2CCCC(C(=O)c3sccc3C)C2)cc1O` (stereo unspecified), the inhibition was active: 41%.
For `Cc1ccccc1-c1nn2c(=O)cc(CN3CCN(C(=O)COc4ccccc4Cl)CC3)nc2s1` the value was 8.17%.
Turning to `Cc1ccc(-n2c(/C=C\c3ccc(F)c(F)c3)nc3ccccc3c2=O)c(C)c1`, the inhibition worked out at 21%.
As for `CN(CCc1nnc(N)s1)[N+](=O)[O-]`, the inhibition is active: 47.6%.
As for `CCN1CCN(c2ccc(NC(C)=O)cc2Cl)CC1`, the inhibition is active: 41.6%.
With `Oc1cc2c(cc1CN1CCN(c3ccccc3F)CC1)OCO2`, the inhibition was active: 76.4%.
For `Cc1cccc(OCC(=O)N2CCN(Cc3cc(=O)n4nc(-c5ccccc5Cl)sc4n3)CC2)c1` the value was -24.4%; for `COc1ccc(CNCCc2c[nH]c3ccccc23)c(OC)c1C`, active: 33.1%.
On to `Cc1ccc(C(C)(C)C)c(OCC(=O)Nc2ccc(Cl)cc2C(=O)c2ccccc2)c1`, for which the inhibition is -1.76%.
In the case of `c1cnc2c(c1)ncn2C1CCNCC1`, the inhibition was -5.18%.
On to `COc1cccc(-n2c(/C=C\c3ccc(Cl)cc3)nc3ccccc3c2=O)c1`, for which the inhibition was -2.31%.
The figure for `Cc1ccc(OCC(=O)N2CCN(Cc3ccc(F)cc3)CC2)cc1` is -14.4%.
The figure for `COc1ccccc1N1CCN(Cc2cccc(Br)c2)CC1` is active: 75.8%; for `O=C(COc1ccc(Br)cc1)Nc1ccc(Cl)cc1C(=O)c1ccccc1` it is 5.18%; for `CCOc1ccc2nc(NC(=O)c3cccn(Cc4ccc(Cl)cc4)c3=O)sc2c1` it is 4.86%.
With `CN1C(=O)C(=Cc2cn(CC(=O)N3CCCC3)c3ccccc23)C(=O)N(C)C1=O`, the inhibition is active: 30.2%.
For `O=C(Nc1ccc2c(c1)OCCO2)c1cccn(Cc2cccc(F)c2)c1=O`, the inhibition was -12.2%.
As to `CCc1ccccc1NC(=O)c1cccn(Cc2ccccc2F)c1=O`, the inhibition was 27.7%.
As to `CCOc1ccc2nc(NC(=O)c3cccn(Cc4ccccc4)c3=O)sc2c1`, the inhibition amounted to 10.4%.
For `CSc1ccc(CN2CCN(C(=O)COc3ccc(C)cc3)CC2)cc1` the value was -10.9%; for `CCCCC1(CN2CCCC2=O)C(=O)NC(=O)NC1=O`, active: 44.6%; for `O=C(Nc1ccc(Cl)cc1C(=O)c1ccccc1)c1cc(Cl)cc(Cl)c1`, 6.29%.
With `COc1ccc(OC)c(NC(=O)Cn2cc(C(=O)c3ccccc3)c3ccccc32)c1`, the inhibition came to 3.94%.
On to `c1cc2n(c1)-c1c(ccc3c1OCO3)CNC2c1ccc2c(c1)OCO2` (stereo unspecified), for which the inhibition was active: 51.1%.
As for `Cc1ccc(CN2CCN(Cc3ccccc3F)CC2)cc1`, the inhibition was active: 38.9%.
With `COc1ccc(C)cc1NC(=O)c1cccn(Cc2cccc([N+](=O)[O-])c2)c1=O`, the inhibition came to 13.2%.
For the compound `COCc1ccc(CN2CCCC(C(=O)c3sccc3C)C2)o1` (stereo unspecified), the inhibition was active: 38.3%.
With `CCCC12CN3CC(CCC)(CN(C1)C3c1ccccn1)C2=O` (stereo unspecified), the inhibition is -1.23%.
The figure for `COc1cccc(/C=C/c2nc3ccccc3c(=O)n2-c2ccc(Cl)cc2)c1OC` is 11%; for `Cc1nnc(NC(=O)c2cccn(Cc3cccc(Cl)c3)c2=O)s1` it is 1.85%; for `O=c1c2ccccc2nc(/C=C/c2ccccc2)n1-c1ccccc1F` it is -7.03%.
The figure for `c1cncc(CNCCc2c[nH]c3ccccc23)c1` is active: 33%.
As for `COc1cc(C(c2c(O)c3ccccc3oc2=O)c2c(C)n(C)n(-c3ccccc3)c2=O)ccc1O` (stereo unspecified), the inhibition turned out to be 3.4%.
Take `Fc1ccccc1N1CCN(Cc2ccc3c(c2)OCO3)CC1`: the inhibition was active: 88.4%.
For `CN1CCN(c2oc(-c3ccc(COc4ccccc4)o3)nc2C#N)CC1` the value was -4.23%; for `OCCN1C2CCC1CC(O)(c1ccc(F)cc1)C2` (stereo unspecified), active: 48.2%.
